The subject of assay [1] is HSkMC (human skeletal muscle cells). As to the kind of experiment: cytotoxicity call (relative viability < 0.9). The note with it: 10 µM.
The test system of assay [2] is HepG2. As to the kind of experiment: cytotoxicity call (relative viability < 0.9). The note with it: 10 µM.
The test system of assay [3] is S. aureus RN4220. In words: growth inhibition call (relative growth <= 0.2). The following applies: 50 µM.

Some of the results follow.

Take `Cc1noc(C)c1S(=O)(=O)N(C)C[C@H]1Oc2ccc(NS(=O)(=O)c3ccc(F)cc3)cc2C(=O)N([C@H](C)CO)C[C@H]1C`: the cytotoxicity call in assay [1] and in assay [2] was “inactive” throughout. Further, in assay [3], the growth inhibition call was “inactive”.
Consider `CC(C)CCCC(C)C1CCC2C3CC(=O)C4CC(O)CCC4(C)C3CCC12C` (stereo not drawn) [5alpha-CHOLESTAN-3beta-OL-6-ONE], for which the growth inhibition call in assay [3] was “inactive”.
The same measure, in the same setting: for `CC(C)CCCC(C)C1CCC2C3CCC4CC(O)CCC4(C)C3CCC12C` (stereo not drawn) [5alpha-CHOLESTANOL] the value was “inactive”.
For `O=C(Nc1cc(C(F)(F)F)ccc1-n1cnc2ccccc21)c1ccc(S(=O)(=O)N2CCCC2)cc1`, the cytotoxicity call in assay [1] and in assay [2] was “inactive” each time. Besides, the growth inhibition call in assay [3] was “inactive”.
Turning to `COc1ccc(NC(=O)Nc2ccc3c(c2)C(=O)N([C@H](C)CO)C[C@H](C)[C@@H](CN(C)C(=O)Nc2ccc4c(c2)OCO4)OCCCC[C@@H](C)O3)cc1`, the cytotoxicity call in assay [1] and in assay [2] was “inactive” throughout. Moreover, in assay [3], the growth inhibition call is “inactive”.
`N=C(N)NCCC[C@@H]1NC(=O)[C@@H](N)CSSC[C@@H](C(=O)O)NC(=O)[C@H](CC(=O)O)NC(=O)[C@@H]2CCCN2C(=O)CNC(=O)[C@H](CCCCN)NC(=O)[C@H](CC(=O)O)NC(=O)CNC1=O`: the cytotoxicity call in assay [1] and in assay [2] was “inactive” each time. In addition, in assay [3], the growth inhibition call is “inactive”.
`CC(C)CCCC(C)C1CCC2C3CC(=O)C4CC(O)CCC4(C)C3CCC12C` (stereo not drawn) [5alpha-CHOLESTAN-3beta-OL-6-ONE ]: the cytotoxicity call in assay [1] and in assay [2] was “inactive” in each case.
On to `C[C@@H]1CN([C@H](C)CO)C(=O)c2cc(NS(C)(=O)=O)ccc2O[C@@H]1CN(C)S(=O)(=O)c1ccc(Cl)cc1`, for which the cytotoxicity call in assay [1] and in assay [2] was “inactive” throughout. Besides, the growth inhibition call in assay [3] was “inactive”.
Take `Cc1ccc(S(=O)(=O)N(C)C[C@@H]2OCCCC[C@@H](C)Oc3ccc(NC(=O)Nc4ccc5c(c4)OCO5)cc3C(=O)N([C@H](C)CO)C[C@@H]2C)cc1`: the cytotoxicity call in assay [1] and in assay [2] was “inactive” in each case. In assay [3], the growth inhibition call was “inactive”.
In the case of `CC(C)CCC[C@@H](C)[C@H]1CC[C@H]2[C@@H]3C[C@@H](O)[C@@]4(O)C[C@@H](O)CC[C@]4(C)[C@H]3CC[C@]12C` [CHOLESTAN-3beta,5alpha,6beta-TRIOL ], the cytotoxicity call in assay [1] and in assay [2] was “active” throughout.
With `CC(C)CCCC(C)C1CCC2C3CCC4CC(O)CCC4(C)C3CCC12C` (stereo not drawn) [5alpha-CHOLESTANOL ], the cytotoxicity call in assay [1] and in assay [2] was “inactive” throughout.
`CC(C=CC=C(C)C=CC1=C(C)C(=O)CCC1(C)C)=CC=CC=C(C)C=CC=C(C)C=CC1=C(C)C(=O)CCC1(C)C` [CANTHAXANTHIN (euglenanone) ]: the cytotoxicity call in assay [1] and in assay [2] was “inactive” in each case.
With `C[C@@H]1CN([C@@H](C)CO)C(=O)c2cccc(NC(=O)Nc3ccc(C(F)(F)F)cc3)c2O[C@H]1CN(C)S(C)(=O)=O`, the cytotoxicity call in assay [1] and in assay [2] was “inactive” in each case. Further, in assay [3], the growth inhibition call was “inactive”.
Turning to `COc1ccc(CN(C)C[C@@H]2OCCCC[C@@H](C)Oc3ccc(NS(=O)(=O)c4ccc(F)cc4)cc3C(=O)N([C@H](C)CO)C[C@@H]2C)cc1`, the cytotoxicity call in assay [1] and in assay [2] was “inactive” each time. The growth inhibition call in assay [3] was “inactive”.
Consider `CC(C)(CO)C(O)C(=O)NCCC(=O)[O-].[Na+]` (stereo not given) [PANTOTHENIC ACID(d) Na salt], for which the growth inhibition call in assay [3] is “inactive”.
Turning to `CC(Cn1cnc2c(N)ncnc21)OCP(=O)(O)O` (stereo not given), the cytotoxicity call in assay [1] was “inactive”. Further, the cytotoxicity call in assay [2] was “active”. For the same compound, in assay [3], the growth inhibition call was “inactive”.
For `O=C(CN1CCOCC1)N[C@@H]1CC[C@H](CCNS(=O)(=O)c2ccccc2F)O[C@H]1CO`, the cytotoxicity call in assay [1] and in assay [2] was “inactive” in each case. Moreover, the growth inhibition call in assay [3] was “inactive”.
For the compound `Cc1noc(C)c1NC(=O)Nc1ccc2c(c1)C(=O)N([C@H](C)CO)C[C@H](C)[C@H](CN(C)Cc1ccc(C(=O)O)cc1)OCCCC[C@@H](C)O2`, the cytotoxicity call in assay [1] and in assay [2] was “inactive” throughout. Further, the growth inhibition call in assay [3] was “inactive”.
In the case of `COC1C(O)CC(=O)OC(C)CC=CC=CC(O)C(C)CC(CC=O)C1OC1OC(C)C(OC2CC(C)(O)C(OC(=O)CC(C)C)C(C)O2)C(N(C)C)C1O` (stereo not given) [KITASAMYCINS [A1 shown]], in assay [3], the growth inhibition call is “active”.
Take `O=C(C[C@@H]1CC[C@H]2[C@@H](COC[C@H](O)CN2C(=O)Nc2ccc(Cl)c(Cl)c2)O1)NCc1ccncc1`: the cytotoxicity call in assay [1] and in assay [2] was “inactive” throughout. The growth inhibition call in assay [3] is “active”.
As for `CC(C)NC(=O)Nc1cccc2c1O[C@H](CN(C)S(=O)(=O)c1cccs1)[C@H](C)CN([C@H](C)CO)C2=O`, the cytotoxicity call in assay [1] and in assay [2] was “inactive” each time. Also, the growth inhibition call in assay [3] is “inactive”.
On to `CC(C)OC(=O)c1nnc(N)[nH]1`, for which the cytotoxicity call in assay [1] and in assay [2] was “inactive” each time. For the same compound, in assay [3], the growth inhibition call was “inactive”.
For `CC(C=CC1(O)C(C)=CC(=O)CC1(C)C)=CC(=O)O` (mixture of isomers) [ABSCISIC ACID (cis,trans; +/-)], the growth inhibition call in assay [3] was “inactive”.
Consider `CC1=CCCC(C)=CCC(C)(C)C=CC1` [HUMULENE (alpha) ], for which the cytotoxicity call in assay [1] and in assay [2] was “inactive” throughout.
Regarding `COCC#Cc1ccc2c(c1)O[C@H](CN(C)S(=O)(=O)c1cccc(OC)c1)[C@H](C)CN([C@H](C)CO)S2(=O)=O`, the cytotoxicity call in assay [1] and in assay [2] was “inactive” each time. Further, the growth inhibition call in assay [3] is “inactive”.
